# Experimental data reported in PubChem BioAssay AID504339 (National Center for Advancing Translational Sciences (NCATS), 2011).
# The whole screen tested about 390,000 compounds, of which about 17,000 (4.4%) were called active. Inconclusive means that the source gave no clear call. Such entries were picked first, then a sample of the others. Calls follow the shape of the dose curve; as a rule, active = well fitted inhibition curve with a large enough effect; inconclusive = small, poorly fitted or top-dose-only effect; inactive = no such curve, though single readings can be large or run the other way. Potencies beside an inconclusive call are fits to weak or partial responses and may not hold up.
# Target: Lysine-specific demethylase 4A (Homo sapiens) (UniProt O75164)
# UniProt O75164, sequence (O75164 whole entry, looked up, the tested form may be a part): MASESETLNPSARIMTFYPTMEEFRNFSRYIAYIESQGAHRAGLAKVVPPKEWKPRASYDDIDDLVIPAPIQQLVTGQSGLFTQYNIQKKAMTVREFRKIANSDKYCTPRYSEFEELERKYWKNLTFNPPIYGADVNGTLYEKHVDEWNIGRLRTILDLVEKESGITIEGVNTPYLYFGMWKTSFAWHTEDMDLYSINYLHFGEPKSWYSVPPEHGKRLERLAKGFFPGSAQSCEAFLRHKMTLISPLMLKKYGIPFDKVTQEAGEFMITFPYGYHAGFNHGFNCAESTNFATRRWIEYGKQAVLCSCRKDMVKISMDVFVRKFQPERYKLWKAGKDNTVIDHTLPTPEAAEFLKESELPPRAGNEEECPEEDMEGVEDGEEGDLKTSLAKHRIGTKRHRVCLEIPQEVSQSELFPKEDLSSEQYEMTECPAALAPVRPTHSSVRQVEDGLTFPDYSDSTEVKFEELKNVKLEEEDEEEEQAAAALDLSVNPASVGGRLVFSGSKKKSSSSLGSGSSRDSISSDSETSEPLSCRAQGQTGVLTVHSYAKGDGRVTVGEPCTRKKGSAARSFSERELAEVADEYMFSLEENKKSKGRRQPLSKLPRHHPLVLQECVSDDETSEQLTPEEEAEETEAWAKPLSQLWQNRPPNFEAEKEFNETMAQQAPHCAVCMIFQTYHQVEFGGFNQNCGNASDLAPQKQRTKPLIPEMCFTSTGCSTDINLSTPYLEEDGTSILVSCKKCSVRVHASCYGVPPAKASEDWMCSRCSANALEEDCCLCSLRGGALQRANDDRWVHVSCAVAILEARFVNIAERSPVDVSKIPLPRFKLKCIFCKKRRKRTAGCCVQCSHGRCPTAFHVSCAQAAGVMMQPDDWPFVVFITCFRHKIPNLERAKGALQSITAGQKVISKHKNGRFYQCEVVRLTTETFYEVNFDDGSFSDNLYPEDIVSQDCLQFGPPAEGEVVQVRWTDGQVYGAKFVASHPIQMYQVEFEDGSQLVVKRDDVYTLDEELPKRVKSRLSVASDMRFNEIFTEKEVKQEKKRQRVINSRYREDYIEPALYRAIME
# Assay: qHTS Assay for Inhibitors of JMJD2A-Tudor Domain; also: nearly all actives have a fitted effect of over 50% in size
# Settings: AlphaScreen JMJD2A-Tudor / H3K4me3 peptide binding; activity change, negative = inhibition: at 114 µM (top of the series)
# % is scaled to controls: 0 for no effect and ±100 for the full control effect; potency is read from the fitted curve at half-maximal effect; tags tell the direction and shape of the fitted curve.
SMILES,Potency,"activity change, negative = inhibition"
Cn1c(-c2cccc3ccccc23)n[nH]c1=S,active: 20 µM,–
COc1ccc(NCC(=O)Nc2ccc(Cl)cc2C)c(OC)c1,active: 50.1 µM,–
C[C@H](CO)N1C[C@H](C)[C@@H](CN(C)C(=O)Nc2ccc3c(c2)OCO3)Oc2c(NC(=O)Nc3ccccc3)cccc2C1=O,"inconclusive: 89.1 µM [inhibitor, partial curve]",–
CCCCCCCCN1[C@@H](CC(=O)O)c2ccc(C(F)(F)F)cc2S1(=O)=O,–,inactive: -21.4%
COc1cccc(NC(=O)CN(C)C(=O)c2cccnc2Sc2ccc(C)c(C)c2)c1,–,inactive: -24.3%
CC(=O)NC12CC3CC(C1)CC(C(=O)N1CCN(S(=O)(=O)c4ccc([N+](=O)[O-])cc4)CC1)(C3)C2,–,inactive: -13.1%
COc1ccc(OC)c(CNc2nc3ccc(C)cc3n3nnnc23)c1,–,inactive: -17.2%
CCc1ccc(NC(=O)CS(=O)CC(=O)Nc2ccc(F)cc2F)cc1 (configuration not stated),"inconclusive: 39.8 µM [inhibitor, full curve, poor fit]",–
O=C(OCc1cnc(Cl)s1)c1c(F)cccc1F,"inconclusive: 20 µM [inhibitor, single point]",–
CC1CCN(c2nc3ccc(C(=O)N4CCN(c5ccccc5)CC4)cc3s2)CC1,"inconclusive: 35.5 µM [inhibitor, full curve, poor fit]",–
CNC(=S)N/N=C/c1ccccc1OCC(=O)O,"inconclusive: 25.1 µM [inhibitor, single point]",–
COc1cc2c(cc1OC)C(c1cc3ccc(C)cc3[nH]c1=O)N(C(=O)c1ccco1)CC2 (configuration not stated),"inconclusive: 63.1 µM [inhibitor, partial curve, poor fit]",–
COc1cccc(N2CCN(C(=O)c3nn(C)c4c3CSc3ccc(C)cc3-4)CC2)c1,"inconclusive: 35.5 µM [inhibitor, partial curve]",–
COc1ccc(NC(=O)/C(C#N)=C\c2ccc(-c3cc(C(=O)O)ccc3C)o2)cc1,"inconclusive: 56.2 µM [inhibitor, partial curve, poor fit]",–
CCn1c(CNc2nc(-c3ccccc3)cs2)nnc1SCC(=O)NCc1ccccc1,"inconclusive: 89.1 µM [inhibitor, partial curve]",–
COc1ccc(NC(=O)CCNC(=O)c2ccco2)cc1S(=O)(=O)N(C)C,–,inactive: 7.04%
O=C(C[n+]1ccccc1)N/N=C/c1ccccc1C(F)(F)F,–,inactive: 9.36%
CC(OC(=O)c1ccc(Cl)c(S(N)(=O)=O)c1)C(=O)NCc1ccc2c(c1)OCO2 (configuration not stated),–,inactive: -12.5%
O=C(NCc1ccccc1Cl)C1CCN(S(=O)(=O)N2CCC3(CC2)OCCO3)CC1,–,inactive: -2.33%
N#Cc1ccc(CSc2nnc(Cc3cccs3)n2Cc2ccco2)cc1,"inconclusive: 56.2 µM [inhibitor, partial curve]",–
Cc1ccc(S(=O)(=O)N2CCN(C(=O)c3ccc4nc[nH]c4c3)CC2)cc1,–,inactive: -14.4%
CC(=O)c1c(C(C)=O)c(C)n(-c2nc(-c3ccc(Br)cc3)c(C)s2)c1C,"inconclusive: 89.1 µM [inhibitor, partial curve]",–
NS(=O)(=O)c1ccc(CNC(=O)/C=C/c2c(F)cccc2Cl)cc1,"inconclusive: 100 µM [inhibitor, partial curve, poor fit]",–
O=C(CSc1ncccn1)NCCC1=CCCCC1,–,inactive: -6.12%

SMILES,Potency,"activity change, negative = inhibition"
Cc1cc(C(=O)NCc2ccccc2Cl)n(-c2ccccc2)n1,"inconclusive: 14.1 µM [inhibitor, full curve, poor fit]",–
CCOC(=O)c1cnn(-c2ccccc2)c1-n1cccc1C(=O)C(=O)Nc1ccc(F)cc1,"inconclusive: 56.2 µM [inhibitor, partial curve]",–
CCN(CC)S(=O)(=O)c1ccc(NC(=O)CNC2CCCCC2)cc1,active: 5.62 µM,–
O=C(Oc1ccc(/C=N/NC(=O)c2ccccn2)cc1)c1cccc(F)c1,"inconclusive: 89.1 µM [inhibitor, single point]",–
COCCCn1c(-c2ccc(Cl)cc2)n[nH]c1=S,active: 7.94 µM,–
COc1ccc(-c2nnc(NC(=O)CS(=O)(=O)c3ccc(F)cc3)o2)cc1,"inconclusive: 31.6 µM [inhibitor, full curve]",–
CCc1c(O)nc(SCC(=O)Nc2ccc(C)cc2)n(C2CCCCC2)c1=O,–,inactive: -16.8%
O=[N+]([O-])c1cccc(C=NN=C2c3ccccc3-c3ccccc32)c1,"inconclusive: 8.91 µM [inhibitor, full curve]",–
Cc1ccc(S(=O)(=O)n2nc(C)c(S(=O)(=O)N3CCOCC3)c2C)cc1,"inconclusive: 100 µM [inhibitor, single point]",–
CCOC(=O)c1[nH]c(C)c(C(=O)NCc2ccc(C)cc2)c1C,–,inactive: -3.57%
Cc1cccc(C(=O)Nc2nnc(-c3cccnc3)o2)c1,"inconclusive: 89.1 µM [inhibitor, single point]",–
COc1cccc(Cn2nnc(C(=O)NCc3ccc(F)cc3)c2N)c1,"inconclusive: 12.6 µM [inhibitor, full curve, poor fit]",–
CCn1nc(C(=O)OCC(=O)NC(C)C)c2ccccc2c1=O,"inconclusive: 5.01 µM [inhibitor, full curve]",–
O=C(CNCc1cccc2ccccc12)Nc1ccccc1[N+](=O)[O-],"inconclusive: 15.8 µM [inhibitor, full curve]",–
CC(OC(=O)c1ccccn1)C(=O)Nc1ccc2c(c1)OCCO2 (configuration not stated),–,inactive: -1.01%
Cc1c(C#N)c(O)[nH]c(=O)c1N=Nc1ccc(S(N)(=O)=O)cc1,"inconclusive: 79.4 µM [inhibitor, partial curve]",–
O=C(c1cc(-c2cccnc2)nc2ccccc12)N1CCN(S(=O)(=O)c2cccs2)CC1,–,inactive: -9.03%
CCN(CC)c1ccc(NC(=O)c2cccn2-c2nnc(N3CCCCC3)s2)c(C)c1,active: 50.1 µM,–
CCN(CC)C(=O)C1CCCN(Cc2ccc3c(c2)OCO3)C1 (configuration not stated),active: 7.08 µM,–
Cc1ccc(C(=O)Nc2ccc(N3CCN(C(=O)c4ccco4)CC3)cc2)cc1,active: 79.4 µM,–
CC(=O)c1cc(C(=O)Nc2ccccc2C(=O)O)oc1C,active: 56.2 µM,–
CCCC(=O)NC1=C(Cl)C(=O)c2ccccc2C1=O,active: 1.78 µM,–
Oc1ccc(NCc2ccccc2F)c2cccnc12,active: 50.1 µM,–
O=C(Nc1ccc(Cl)c(Cl)c1)N(Cc1cccnc1)Cc1ccco1,"inconclusive: 79.4 µM [inhibitor, partial curve]",–

SMILES,Potency,"activity change, negative = inhibition"
COC(=O)c1ccccc1NC(=O)C12CCC(C)(C(=O)O1)C2(C)C (configuration not stated),–,inactive: -0%
CC1Cc2ccccc2N1C(=S)NC(=O)c1ccc(Cl)cc1Cl (configuration not stated),"inconclusive: 79.4 µM [inhibitor, partial curve]",–
CCOc1ccccc1NC(=O)c1nnn(CC(=O)Nc2cc(C)cc(C)c2)c1N,–,inactive: -14.3%
C=CCOc1ccc(CNC(C)(C)C)cc1OC,–,inactive: -7.1%
Cc1nc(Nc2cnc(/C=C/c3cc(C(=O)Nc4cccc(C(F)(F)F)c4)ccc3C)cn2)cc(N2CCNCC2)n1,"inconclusive: 63.1 µM [inhibitor, partial curve]",–
COCC[N+]1(C)CCCCC1,"inconclusive: 28.2 µM [inhibitor, partial curve]",–
CCNS(=O)(=O)c1ccc(NC(=O)CSc2nc(-c3ccco3)cc(C(F)(F)F)n2)cc1,–,inactive: -13.4%
COc1cc(NC(C)C(=O)N2CC(C)OC(C)C2)cc(OC)c1 (configuration not stated),active: 3.16 µM,–
COc1ccc(OCC(=O)c2c(O)c3ccccc3oc2=O)cc1,active: 20 µM,–
O=C(O)C(c1ccccc1)N1C(=O)/C(=C\c2ccc(-c3ccccc3Cl)o2)SC1=S (configuration not stated),active: 20 µM,–
COc1ccc(Nc2nc(-c3cccnc3)cs2)c(OC)c1,"inconclusive: 50.1 µM [inhibitor, partial curve]",–
O=C(CC(=O)c1ccccn1)c1ccccc1,active: 25.1 µM,–
Cc1ccc(S(=O)(=O)N(Cc2ccccc2)c2ccccc2C(=O)NCc2ccco2)cc1,"inconclusive: 50.1 µM [inhibitor, partial curve]",–
Cc1cc(-c2n[nH]c(=S)n2/N=C/C=C/c2ccccc2)n[nH]1,active: 10 µM,–
COc1ccc(NC(=O)CSc2nccn2Cc2ccc3c(c2)OCO3)cc1,"inconclusive: 56.2 µM [inhibitor, partial curve]",–
COc1ccc(-c2c(C)n([O-])c3c([n+]2=O)CCCCC3)cc1,–,inactive: -14.2% [at 57.1 µM]
COc1ccc(OC)c(N2C(=O)[C@@H]3C(c4ccccc4Cl)=NO[C@@H]3C2=O)c1,"inconclusive: 3.55 µM [inhibitor, single point]",–
CC(=O)c1cccc(N(C(=O)CNC(=O)c2ccco2)C(C(=O)NCC2CCCO2)c2ccccc2)c1 (configuration not stated),–,inactive: -15.8%
O=c1ccc2ccc(Oc3ccc(Cl)cc3[N+](=O)[O-])cc2o1,"inconclusive: 50.1 µM [inhibitor, partial curve]",–
CC(=O)n1cc([C@H]2C=C(C(=O)N3CCN(Cc4ccc5c(c4)OCO5)CC3)O[C@@H](OCCCCO)C2)c2ccccc21,"inconclusive: 56.2 µM [inhibitor, partial curve, poor fit]",–
COc1ccccc1CNC(=O)c1ccccc1NC(=O)C1=C(C)OCCS1,"inconclusive: 63.1 µM [inhibitor, partial curve, poor fit]",–
NC(=O)c1ccc(Cn2c(C(=O)c3cc(Cl)c(N)c(Cl)c3)c3ccccc3[n+]2[O-])cc1,"inconclusive: 56.2 µM [inhibitor, partial curve]",–
COc1ccc(/C=N/Nc2cc(N(C)C)nc(N(C)C)n2)cc1,"inconclusive: 56.2 µM [inhibitor, partial curve]",–
CC(Sc1nnc2ccc3ccccc3n12)C(=O)Nc1ccc(Cl)cc1 (configuration not stated),"inconclusive: 25.1 µM [inhibitor, single point]",–
